Screen size: about 360,000 compounds; about 6,000 (1.7%) were called active. Inconclusive results, whose numbers are uncertain, are shown with a selection of clear calls. Calls come from the whole dose curve; as a rule, active = well fitted cell-killing curve with a large enough effect; inconclusive = small, poorly fitted or top-dose-only effect, or effect the other way; inactive = flat fitted curve, though single readings scatter. Potencies of inconclusive entries are left out as doubtful fits.
Assay: qHTS for induction of synthetic lethality in tumor cells producing 2HG: qHTS for the HT-1080-NT fibrosarcoma cell line;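 note: NT is the 2HG producing partner of a matched IDH1 knockdown line; nearly all actives have a fitted effect of over 55% in size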
Conditions: HT-1080-NT fibrosarcoma viability, CellTiter-Glo ATP luminescence, 48 h; series mostly up to 46.1 µM
How it was run: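 Read-out is CellTiter-Glo luminescence after 10 minutes at room temperature, following 48 hours' compound treatment of HT-1080-NT cells (750 cells/well, RPMI, 5% FBS, 37 degrees C).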
Potency is the fitted concentration of half-maximal effect; tags give direction and shape of the fitted curve.

Row | Structure (SMILES) | Potency
1 | CCOC(=O)C1=C(C)NC2=C(C(=O)CC(c3cccs3)C2)C1c1cccs1 (centres undefined) | inconclusive [cytotoxic, partial curve]
2 | COc1ccc(-c2nnc(Nc3nc4c(OC)cccc4s3)o2)cc1 | inconclusive [cytotoxic, partial curve]
3 | CN(c1cccc(NC(=O)c2ccc(C(C)(C)C)cc2)c1)S(C)(=O)=O | active: 23.1 µM
4 | O=C(O)Cn1nnc(-c2ccccc2)c1COc1ccccc1 | inconclusive [rising, single point]
5 | Cn1cc(C(=O)C(=O)NC2CCCCC2)c2ccccc21 | inconclusive [rising, partial curve, poor fit]
6 | CC(=O)Nc1ccc(CNc2nc(NCCN(C)C)nc3cc(-c4ccccc4)sc23)cc1 | active: 11.6 µM
7 | OC(COc1ccc2ccccc2c1)CN1CCCC1 (centres undefined) | inconclusive [cytotoxic, partial curve]
8 | Cc1ccc(C(=O)Nc2ccccc2-c2ccccc2)cc1S(=O)(=O)Nc1ccccc1 | inconclusive [cytotoxic, single point]
9 | CN(c1ccccc1)c1nc(-n2ccnc2)nc(-n2ccnc2)n1 | inconclusive [cytotoxic, partial curve]
10 | NNC(=O)c1[nH]c2ccc(Cl)cc2c1-c1ccccc1 | inconclusive [cytotoxic, partial curve]
11 | COc1ccc(OC)c(S(=O)(=O)Nc2cccc(-c3ccc(N4CCCCCC4)nn3)c2)c1 | inconclusive [cytotoxic, single point]
12 | COc1ccc(CCN2CC(C(=O)Nc3cc(S(C)(=O)=O)ccc3Cl)CC2=O)cc1OC (centres undefined) | inactive
13 | Cc1ccc(S(=O)(=O)NC(C)(C)CN2CCC(Cc3ccccc3)CC2)cc1 | inconclusive [cytotoxic, partial curve]
14 | CCC(=O)c1cc(-c2nc3ccccc3n2C)n(C)c1 | inconclusive [rising, partial curve]
15 | CC(C)(C)C(=O)N1N=C(c2ccc(NS(C)(=O)=O)cc2)CC1c1cccs1 (centres undefined) | inconclusive [cytotoxic, single point]
16 | COc1ccccc1CNS(=O)(=O)c1ccc(-c2cc(C)no2)cc1 | active: 4.11 µM
17 | Cc1cc(NC(=O)c2cc(-c3ccco3)on2)nn1Cc1ccc(Cl)cc1 | inactive
18 | O=C(c1nn(Cc2ccccc2)c(=O)c2ccccc12)N1CCN(C/C=C/c2ccccc2)CC1 | inconclusive [cytotoxic, single point]
19 | Cc1cc(C(=O)CSc2n[nH]c(N)n2)c(C)n1-c1ccc(F)cc1 | inconclusive [cytotoxic, full curve, poor fit]
